Source: PubChem BioAssay AID463173 (ICCB-Longwood Screening Facility, Harvard Medical School, 2010)
In all, about 52,000 compounds went through this assay and about 1,700 (3.3%) were called active. Rule as the data show it: active = survival mostly below about 52% (no sharp cut-off); inactive = mostly above about 56%. This is one part of the list.

The compounds below were run on Wild type (assay: S. aureus survival, RN4220 and DeltatarO strains – OD600, teichoic acid synthesis inhibitors, primary screen (AID 463173)). Conditions: S. aureus RN4220 wild type/DeltatarO growth, OD600, 18 h, stronger effect = lower value, screened at 18.75 µg/mL (by protocol).

Row | Compound | survival
1 | CC(=O)c1cc2c(cc1N/C(=N/S(=O)(=O)c1ccc(F)cc1)c1ccccc1)OCO2 | inactive: 73%
2 | COc1ccc(CN2CCN(S(=O)(=O)c3ccc(NC(C)=O)cc3)CC2)c(OC)c1OC | inactive: 80%
3 | CCc1ccc(-c2nc(CSCC(=O)NCc3ccc(C)cc3)c(C)o2)cc1 | active: 0%
4 | O=C(NCc1ccco1)c1ccc2c(c1)N(Cc1cccc(Cl)c1)C(=O)c1ccccc1S2=O (configuration not stated) | inactive: 45%
5 | CCOc1ccc(CCNC(=O)Cn2c(C)c3cnn(-c4ccccc4)c(=O)c3c2C)cc1 | inactive: 95%
6 | O=C(Cn1ncc2c3ccccc3n(Cc3cccc(Cl)c3)c2c1=O)N1CCCCCC1 | inactive: 86%
7 | Fc1cccc(Nc2nc(Cl)nc(Cl)n2)c1 | inactive: 108%
8 | CCc1c(CN2CCN(c3cccc(C)c3)C(C)C2)csc1C (configuration not stated) | inactive: 94%
9 | CCn1cc(C(=O)NC2CCCCC2)c(=O)c2ccc(C)nc21 | inactive: 116%
10 | COc1cc(OC)c(NC(=O)CSc2cc(=O)n(C)c3ccc(Cl)cc23)cc1Cl | inactive: 79%
11 | CCc1ccc(NC(=O)CC2C(=O)N(c3ccc(Cl)cc3)C(=O)N2C2CCCC2)cc1 (configuration not stated) | inactive: 159%
12 | Cc1ccccc1Cn1c2ccccc2c2cnn(CC(=O)NCCc3ccc(Cl)cc3)c(=O)c21 | inactive: 89%
13 | CC(=O)c1cccc(Nc2nc(-c3ccccc3Cl)nc3ccccc23)c1 | inactive: 66%
14 | Cc1cccc(OCCn2c(-c3ccc(Cl)cc3)nc3ccccc3c2=O)c1C | inactive: 76%
15 | O=C(NC1CC(=O)N(c2ccccc2)C1)c1ccc(S(=O)(=O)N2CCCC2)cc1 (configuration not stated) | inactive: 133%
16 | Nc1ncc(S(=O)(=O)NCc2ccc(F)cc2)cn1 | inactive: 71%
17 | CC(CCCc1ccccc1)NC(=O)c1nn(-c2ccc(Cl)cc2)nc1CO (configuration not stated) | inactive: 78%
18 | CC(C)c1cccc(C(C)C)c1NS(=O)(=O)c1cccs1 | inactive: 79%
19 | Cc1ccc2[nH]c3c(=O)n(CC(=O)N4CCCC(C)C4)ncc3c2c1 (configuration not stated) | inactive: 60%
20 | COc1ccc(C(=O)CCC(=O)Nc2cc(C)ccc2C)cc1 | inactive: 89%
21 | O=C(C1CCC1)N1CCCC(c2nc3c(nnn3Cc3cccc(Cl)c3)c(=O)[nH]2)C1 (configuration not stated) | inactive: 124%
22 | CCOC(=O)c1c(C)[nH]c(C)c1S(=O)(=O)NCC(=O)N1CCN(c2ccccc2F)CC1 | inactive: 67%

Row | Compound | survival
23 | COc1ccc(CNC(=O)C2CCN(S(=O)(=O)c3ccc4c(ccn4C)c3)CC2)cc1 | inactive: 86%
24 | Cc1cc(C)c2c(-n3cccc3)c(C(=O)NCC(C)c3ccccc3)sc2n1 (configuration not stated) | inactive: 83%
25 | Cc1cccc2sc(N(Cc3cccnc3)C(=O)COc3ccccc3)nc12 | inactive: 84%
26 | CCOc1ccccc1NC(=O)c1cc2c(=O)[nH]c3ccccc3c2s1 | inactive: 79%
27 | CC(C)c1ccc(NC(=O)Cn2c(=O)oc3cc(S(=O)(=O)N4CCCC4)ccc32)cc1 | inactive: 124%
28 | CCc1ccc(NC(=O)c2ccc(F)c(S(=O)(=O)N3CCN(c4cc(C)ccc4C)CC3)c2)cc1 | inactive: 87%
29 | Cc1noc2ncnc(N3CCCC(C(=O)Nc4cccc(C(F)(F)F)c4)C3)c12 (configuration not stated) | inactive: 66%
30 | Cc1cc(C)c2c(=O)c3c(oc2c1)C(=O)N(Cc1ccco1)C3c1ccccc1F (configuration not stated) | inactive: 117%
31 | COc1ccc(-c2nc(S(=O)(=O)c3ccc(C)cc3)c(NCc3ccccc3)o2)cc1 | inactive: 85%
32 | Cn1cc(-c2cc3n(n2)CCC(=O)N3CCCC(=O)Nc2ccccc2F)c2ccccc21 | inactive: 159%
33 | CCc1c(C)c(C#N)c2nc3ccccc3n2c1Nc1cccc(C(F)(F)F)c1 | inactive: 73%
34 | CCOC(=O)CC1NC(=O)c2ccccc21 (configuration not stated) | inactive: 114%
35 | Cc1c(C(=O)NCc2ccccc2Br)oc2ccc3c(c12)C(=O)CC(C)(C)O3 | inactive: 81%
36 | COc1ccc(NC(=O)c2sc3nc4c(cc3c2N)CN(Cc2ccccc2)CC4)cc1OC | inactive: 94%
37 | CCc1cccc(NC(=O)C(CC)n2nc(C)c3sc4ccccc4c3c2=O)c1 (configuration not stated) | inactive: 87%
38 | O=C(NCCCN1CCN(c2ccc(F)cc2)CC1)c1ccc2nc(CCc3ccccc3)oc2c1 | inactive: 63%
39 | COc1ccc(Nc2nc(-c3ccccc3F)nc3ccccc23)cc1OC | inactive: 71%
40 | Cc1noc(-c2ccc(-c3noc(-c4ccc(C(F)(F)F)cc4)n3)cc2)n1 | inactive: 123%
41 | CC(C)c1ccc(NC(=O)C(Cc2ccccc2)NS(=O)(=O)c2ccc3c(c2)oc(=O)n3C)cc1 (configuration not stated) | inactive: 98%
42 | CN(C)CCNC(=O)Cn1nc(N2CCN(c3ccccc3)CC2)ccc1=O | inactive: 117%
43 | CCOc1ccc(CC(=O)NCc2ccc3c(c2)CCN3C(C)=O)cc1OCC | inactive: 124%
44 | Cc1ccc(C)c(S(=O)(=O)c2nnn3c2nc(N2CCCCC2)c2sccc23)c1 | inactive: 81%

Row | Compound | survival
45 | CC(C)(C)OC(=O)N1CCC(c2c(C(=O)N3CCN(c4ncccn4)CC3)cnn2-c2cccc(F)c2)CC1 | inactive: 134%
46 | COc1ccc(NC(=O)CCc2nnc3n(CC(C)C)c(=O)c4ccccc4n23)cc1OC | inactive: 92%
47 | COc1ccc(Nc2nc(OC)nc(OC)n2)cc1 | inactive: 115%
48 | COc1ccc(OC)c(NC(=O)Cn2cc(C(=O)c3ccc(Cl)cc3)c(=O)c3cc(OC)ccc32)c1 | inactive: 68%
49 | CC(=O)Nc1nonc1-c1nnc(SCc2ccccc2Cl)n1C | inactive: 80%
50 | Cc1ccc(O)c(NC(=O)COCc2cc(-c3ccco3)on2)c1 | inactive: 87%
51 | COc1cc2c(cc1OC)n(CC(=O)c1ccc(C)cc1)c(=O)n1nc(CCn3nc(C)cc3C)nc21 | inactive: 143%
52 | COc1ccc(-c2cc(C(=O)Oc3cccc(C)c3C)c3ccccc3n2)cc1 | active: 12%
53 | COc1ccc(NC(=O)c2ccc3c(c2)CCN3S(=O)(=O)c2ccccc2)cc1 | inactive: 106%
54 | COC(=O)c1cc(OC)c(OC)cc1NC(=O)c1ccc2c(c1)CCN2S(=O)(=O)c1ccccc1 | inactive: 86%
55 | Fc1ccc(-n2ncc3c(N4CCN(Cc5ccccc5)CC4)ncnc32)cc1 | inactive: 81%
56 | O=C(NCc1ccccn1)c1nn(-c2ccccc2F)nc1CO | inactive: 87%
57 | COc1ccc(CCN2C(=O)CN(C3CCCCCC3)C(=O)C2c2ccc(C)cc2)cc1OC (configuration not stated) | inactive: 69%
58 | Fc1ccccc1C1=NC(c2ccc(C(F)(F)F)cc2)=Nc2ccccc2N1 | inactive: 86%
59 | CCOc1ccccc1CN1CCc2nc(Nc3ccccc3)ncc2C1 | inactive: 82%
60 | COc1cc(CN2CCN(S(=O)(=O)c3ccc(F)cc3)CC2)cc(OC)c1OC | inactive: 77%
61 | COc1cccc(CNC(=O)CCNS(=O)(=O)c2ccc3c(c2)CCCC(=O)N3)c1 | inactive: 53%
62 | COc1cccc(N=c2oc3cc(O)ccc3cc2C(=O)NCC2CCCO2)c1 (configuration not stated) | inactive: 113%
63 | CCc1ccc(CNC(=O)c2ccc3c(c2)nc2n3CCCCC2)cc1 | inactive: 71%
64 | COc1ccc(OC)c(CCNC(=O)CN2C(=O)COc3ccc(S(=O)(=O)N4CCCCCC4)cc32)c1 | inactive: 77%
65 | Cc1ccc(C)c(Cn2cnc3ccccc3c2=O)c1 | inactive: 54%
66 | COc1cccc(CNC(=O)CSc2n[nH]c(-c3ccccc3Cl)n2)c1 | inactive: 75%

Row | Compound | survival
67 | O=C(CSc1ccc2nnc(CCNS(=O)(=O)c3ccccc3)n2n1)Nc1ccccc1C(F)(F)F | inactive: 107%
68 | CCc1cccc(NC(=O)CN2c3ccccc3S(=O)(=O)c3ccccc32)c1 | inactive: 68%
69 | CC(=O)N1c2ccc(S(=O)(=O)NCCC(=O)Nc3ccc(C)cc3Br)cc2CC1C (configuration not stated) | inactive: 91%
70 | CC1=C(C(=O)Nc2ccccc2)C(c2cccs2)n2nc(SCc3ccccc3)nc2N1 (configuration not stated) | inactive: 94%
71 | O=C(Nc1c2c(nn1-c1ccc(Cl)cc1)CS(=O)(=O)C2)c1cccc(Cl)c1 | inactive: 70%
72 | COc1ccc(OC)c(NC(=O)c2cc3cc4ccc(C)cc4nc3s2)c1 | inactive: 87%
73 | Cc1ccc(CNC(=O)Cn2ccn(-c3cc(C)cc(C)c3)c(=O)c2=O)cc1 | inactive: 86%
74 | O=C(c1ccc(F)cc1)n1nc(-c2ccc(Cl)cc2)nc1NCc1ccco1 | inactive: 76%
75 | COc1ccccc1NC(=O)Cn1nc(C)n2cccc2c1=O | inactive: 86%
76 | CCOc1ccc(-c2cc(NC(=O)Nc3ccccc3C(F)(F)F)c(C(=O)OC)s2)cc1 | inactive: 72%
77 | Cc1ccc(N2CC(C(=O)NCc3nnnn3-c3ccc(C)c(C)c3)CC2=O)cc1 (configuration not stated) | inactive: 73%
78 | COC(=O)c1ccc(Cn2c(SCC(=O)Nc3ccc(F)cc3)nc3ccccc32)cc1 | inactive: 55%
79 | CCOc1ccc(NC(=O)Cn2c(=O)n(Cc3ccc(C(=O)NCc4ccc5c(c4)OCO5)cc3)c(=O)c3ccccc32)cc1 | inactive: 98%
80 | Cc1cc(C)cc(NC(=O)CSc2nc(-c3ccccc3)nn2C(=O)c2ccco2)c1 | inactive: 87%
81 | CCCCN(CC)Cc1ccc(CNS(=O)(=O)c2cc3c(cc2Cl)NC(=O)CO3)o1 | active: -3%
82 | CCCCOc1ccc(C(=O)Nc2ccc3c(c2)CCCN3S(=O)(=O)c2ccc(C)cc2)cc1 | inactive: 78%
83 | COc1ccc(C(=O)Nc2ccccc2C(=O)OCc2cc(=O)n3nc(C4CC4)sc3n2)cc1 | inactive: 67%
84 | CCOc1ccc(NC(=O)Cn2c(=O)cc(C)c3c(C)nn(-c4ccc(CC)cc4)c32)cc1 | inactive: 127%
85 | CCOC(=O)c1c(C)oc2nc(C)nc(Nc3cc(C)ccc3OC)c12 | inactive: 85%
86 | CCOc1ccccc1NC(=O)C1CCCN(S(=O)(=O)c2cn(C)cn2)C1 (configuration not stated) | inactive: 90%
87 | CCOC(=O)N1CCc2c(sc3c2c(=O)n(-c2ccc(CC)cc2)c(=O)n3Cc2cc(C)ccc2C)C1 | inactive: 73%
